The record followed here is the supplement of paper PMC12458215.

± gives the uncertainty stated by the source.

In the data set the test system is HEK293T. As to the kind of experiment: plasma membrane surface immunostaining intensity (anti-HA, deep receptor scanning) (arbitrary fluorescence units); higher = higher plasma membrane expression. The note with it: GPCR class: A.
As for “MNRHHLQDHFLEIDKKNCCVFRDDFIAKVLPPVLGLEFIFGLLGNGLALWIFCFHLKSWKSSRIFLFNLAVADFLLIICLPFVMDYYVRRSDWKFGDIPCRLVLFMFAMNRQGSIIFLTVVAVDRYFRVVHPHHALNKISNWTAAIISCLLWGITVGLTVHLLKKKLLIQNGTANVCISFSICHTFRWHEAMFLLEFFLPLGIILFCSARIIWSLRQRQMDRHAKIKRAITFIMVVAIVFVICFLPSVVVRIHIFWLLHTSGTQNCEVYRSVDLAFFITLSFTYMNSMLDPVVYYFSSPSFPNFFSTLINRCLQRKITGEPDNNRSTSVELTGDPNKTRGAPEALIANSGEPWSPSYLGPTSNNHSKKGHCHQEPASLEKQLGCCIE [HCAR3]”, the “plasma membrane surface immunostaining intensity” value was 6280 ± 200.
The figure for “MNSSFHLHFLDLNLNATEGNLSGPNVKNKSSPCEDMGIAVEVFLTLGVISLLENILVIGAIVKNKNLHSPMYFFVCSLAVADMLVSMSSAWETITIYLLNNKHLVIADAFVRHIDNVFDSMICISVVASMCSLLAIAVDRYVTIFYALRYHHIMTARRSGAIIAGIWAFCTGCGIVFILYSESTYVILCLISMFFAMLFLLVSLYIHMFLLARTHVKRIAALPGASSARQRTSMQGAVTVTMLLGVFTVCWAPFFLHLTLMLSCPQNLYCSRFMSHFNMYLILIMCNSVMDPLIYAFRSQEMRKTFKEIICCRGFRIACSFPRRD [MC5R]” is 5040 ± 330; for “MNSTCIEEQHDLDHYLFPIVYIFVIIVSIPANIGSLCVSFLQAKKESELGIYLFSLSLSDLLYALTLPLWIDYTWNKDNWTFSPALCKGSAFLMYMNFYSSTAFLTCIAVDRYLAVVYPLKFFFLRTRRFALMVSLSIWILETIFNAVMLWEDETVVEYCDAEKSNFTLCYDKYPLEKWQINLNLFRTCTGYAIPLVTILICNRKVYQAVRHNKATENKEKKRIIKLLVSITVTFVLCFTPFHVMLLIRCILEHAVNFEDHSNSGKRTYTMYRITVALTSLNCVADPILYCFVTETGRYDMWNILKFCTGRCNTSQRQRKRILSVSTKDTMELEVLE [GPR65]” it is 4390 ± 240.
To “MNSTGHLQDAPNATSLHVPHSQEGNSTSLQEGLQDLIHTATLVTCTFLLAVIFCLGSYGNFIVFLSFFDPAFRKFRTNFDFMILNLSFCDLFICGVTAPMFTFVLFFSSASSIPDAFCFTFHLTSSGFIIMSLKTVAVIALHRLRMVLGKQPNRTASFPCTVLLTLLLWATSFTLATLATLKTSKSHLCLPMSSLIAGKGKAILSLYVVDFTFCVAVVSVSYIMIAQTLRKNAQVRKCPPVITVDASRPQPFMGVPVQGGGDPIQCAMPALYRNQNYNKLQHVQTRGYTKSPNQLVTPAASRLQLVSAINLSTAKDSKAVVTCVIIVLSVLVCCLPLGISLVQVVLSSNGSFILYQFELFGFTLIFFKSGLNPFIYSRNSAGLRRKVLWCLQYIGLGFFCCKQKTRLRAMGKGNLEVNRNKSSHHETNSAYMLSPKPQKKFVDQACGPSHSKESMVSPKISAGHQHCGQSSSTPINTRIEPYYSIYNSSPSQEESSPCNLQPVNSFGFANSYIAMHYHTTNDLVQEYDSTSAKQIPVPSV [GPR75]” belongs 6160 ± 120; to “MNSWDAGLAGLLVGTMGVSLLSNALVLLCLLHSADIRRQAPALFTLNLTCGNLLCTVVNMPLTLAGVVAQRQPAGDRLCRLAAFLDTFLAANSMLSMAALSIDRWVAVVFPLSYRAKMRLRDAALMVAYTWLHALTFPAAALALSWLGFHQLYASCTLCSRRPDERLRFAVFTGAFHALSFLLSFVVLCCTYLKVLKVARFHCKRIDVITMQTLVLLVDLHPSVRERCLEEQKRRRQRATKKISTFIGTFLVCFAPYVITRLVELFSTVPIGSHWGVLSKCLAYSKAASDPFVYSLLRHQYRKSCKEILNRLLHRRSIHSSGLTGDSHSQNILPVSE [GPR26]”, 1100 ± 180.
The figure for “MNTTSSAAPPSLGVEFISLLAIILLSVALAVGLPGNSFVVWSILKRMQKRSVTALMVLNLALADLAVLLTAPFFLHFLAQGTWSFGLAGCRLCHYVCGVSMYASVLLITAMSLDRSLAVARPFVSQKLRTKAMARRVLAGIWVLSFLLATPVLAYRTVVPWKTNMSLCFPRYPSEGHRAFHLIFEAVTGFLLPFLAVVASYSDIGRRLQARRFRRSRRTGRLVVLIILTFAAFWLPYHVVNLAEAGRALAGQAAGLGLVGKRLSLARNVLIALAFLSSSVNPVLYACAGGGLLRSAGVGFVAKLLEGTGSEASSTRRGGSLGQTARSGPAALEPGPSESLTASSPLKLNELN [LTB4R]” is 4810 ± 820.
